Measurements from the supplement of paper PMC8792480.
Some of the results follow. Repeats are few or missing, and single values can be far off.
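Further: surface PD-L1 on NSCLC cells stained with a PE-labelled anti-human PD-L1 antibody before flow cytometry, screening a library of roughly two hundred mostly kinase and epigenetic inhibitors.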

What follows are compounds tested on NCI-H460 (assay: cell-surface PD-L1 MFI ratio relative to radiation alone (isotype-subtracted); higher = higher PD-L1 surface expression). Settings: inducer: radiation 8 Gy; 10 µM; 24 h.
Method: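 A549 and H460 NSCLC cells were treated with each library drug at 10 uM, then with radiation (8 Gy) or cisplatin (4 uM), and incubated for 24 h. Cell-surface PD-L1 was measured by flow cytometry as an MFI ratio: (MFI drug+inducer - MFI isotype)/(MFI inducer alone - MFI isotype). Hits were defined as ratio < 0.75.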
In the case of COC(=O)[C@@H](N)CCCNC(=N)N[N+](=O)[O-], the “cell-surface PD-L1 MFI ratio” value is reported as inactive: 1.07. In the case of COc1cc([C@@H]2c3cc4c(cc3[C@H](O)[C@H]3COC(=O)[C@@H]23)OCO4)cc(OC)c1OC [Picropodophyllin (PPP)], the “cell-surface PD-L1 MFI ratio” value is reported as inactive: 1.8. CN1CCN(c2ccc([N+](=O)[O-])c3no[n+]([O-])c23)CC1 was tested, and the “cell-surface PD-L1 MFI ratio” value was inactive: 1.29.
